Two compounds from US4900757A, “Hypocholesterolemic and antiatherosclerotic uses of bix(3,5-di-tertiary-butyl-4-hydroxyphenylthio)methane” (Merrell Dow Pharmaceuticals Inc., priority 1988, dated 1990) can be followed below.

In this assay the test system is human LDL. The assay can be described thus: Inhibition of LDL peroxidation (cupric sulfate, thiobarbituric acid assay; Example 3). Conditions: 0.5 ml solution with 250 μg LDL; 30 min at 42° C; then cupric sulfate 12.5 μM, 37° C, 2.5 hours.

With `CC(C)(C)c1cc(SCSc2cc(C(C)(C)C)c(O)c(C(C)(C)C)c2)cc(C(C)(C)C)c1O`, the “ID50 (dose required to inhibit 50% of LDL peroxidation)” value is 6 µg.
Turning to `CC(C)(Sc1cc(C(C)(C)C)c(O)c(C(C)(C)C)c1)Sc1cc(C(C)(C)C)c(O)c(C(C)(C)C)c1` [Probucol, 2,2'-bis(3,5-di-tertiary-butyl-4-hydroxyphenylthio)propane, reference compound], the “ID50 (dose required to inhibit 50% of LDL peroxidation)” value amounted to 12.5 µg.
